The list shows a part of the results.

This assay relates to PfHDP1 homeodomain (GST-tagged). Kind of assay: gcPBM binding intensity (ln(normalized median fluorescence intensity)); higher = stronger DNA binding. The essentials:
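The binding buffer was 1× PBS containing 1% milk, 0.2 mg/ml BSA, 0.5% salmon testes DNA and 0.03% Triton X-100. In it, GST-tagged P. falciparum DNA-binding domains expressed in E. coli were applied for 1 h to an Agilent 4 × 180k array of primer-extended double-stranded 36-bp intergenic genomic probes plus negative controls. Binding intensity, read with Alexa488 anti-GST antibody and a 488 nm scan, is the highest Masliner-normalised natural-log median intensity across replicate spots of either probe orientation.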
Turning to “AAAAGGAACAGACACACACACATATATATATATATA [CACACA_site3587]”, the “gcPBM binding intensity (ln)” value was 9.33. As to “AAAAAAAAAAAAAGTACACACTTATAAAATATTATG [CACACA_site4639]”, the “gcPBM binding intensity (ln)” value was determined as 6.24. As for “TAAATTATCTTTTTATGTACTTATTTTTATTATTTT [XGTACX_site3158]”, the “gcPBM binding intensity (ln)” value stood at 6.27. As to “CGCGCACCCAGACACACACACACACCGATATATATA [CACACA_site8687]”, the “gcPBM binding intensity (ln)” value was 6.9. Turning to “TATTTTCAACATATTTGTACATATTTTATATTTTAA [XGTACX_site101]”, the “gcPBM binding intensity (ln)” value was found to be 6.66. As to “ATACGAAAAAAAAAAAGTACACAAAAATATCTACAT [XGTACX_site2051]”, the “gcPBM binding intensity (ln)” value is 6.19. Turning to “GTTATACTCATATATACACACATATGTAAATATATA [CACACA_site5764]”, the “gcPBM binding intensity (ln)” value was 7.55. In the case of “AAAATATGGATTCATGATATTAAATTTAATTTAATG [XGTACX_negctrl_site214]”, the “gcPBM binding intensity (ln)” value turned out to be 5.92.

In the case of “ATATAAATAATGTTGACACACACAATAATCTTATTA [CACACA_site9197]”, the “gcPBM binding intensity (ln)” value worked out at 6.41. Consider “ATTATATTAGGTAATCAGTTAAATGTTTCCTTTTTA [CACACA_negctrl_site1229]”, for which the “gcPBM binding intensity (ln)” value worked out at 6.06. On to “TTTATATAATTTTGTGGTACTTATGTGTGTATATTA [XGTACX_site706]”, for which the “gcPBM binding intensity (ln)” value was 6.57. On to “TATATTAAATGAAACAAACACACATAGCCTTTAAAT [CACACA_site1559]”, for which the “gcPBM binding intensity (ln)” value was 6.66. As to “ATATCTACTATACAACTGAGTGTAGAAAAATTAAAC [CACACA_negctrl_site1211]”, the “gcPBM binding intensity (ln)” value was found to be 6.74. “ACTTTGCTCTACAATGCATGCTCATTTAACAAGGCA [TGCATGCA_site676]”: the “gcPBM binding intensity (ln)” value came out at 8.03. As to “AAGAAAAAAAAAATTACACACTGCGGACATACACAA [CACACA_site4838]”, the “gcPBM binding intensity (ln)” value was determined as 6.69. With “TCAATTTTACTTGTTTGTACATAAAATAATAAGGTT [XGTACX_site3732]”, the “gcPBM binding intensity (ln)” value came out at 6.25.

For “AACATACACATATACACACACACATATATACCTATA [CACACA_site6643]”, the “gcPBM binding intensity (ln)” value amounted to 7.76. Next, “ATATTTTGTTTTTGTTCTTTTTTTTTCTTTTTTTTT [CACACA_negctrl_site1342]”: 6.18. In the case of “AATTGGGAAGGACATGCATGAGAAATTAATATTGCA [TGCATGCA_site424]”, the “gcPBM binding intensity (ln)” value turned out to be 6.47. As for “TATTATTATTATGGTAGTACATGTAGGTTATTAAAA [XGTACX_site5742]”, the “gcPBM binding intensity (ln)” value was found to be 6.85. For the sequence “ATATTTATAAATTGCACACAAATAATAACATTCTAT [CACACA_site2357]”, the “gcPBM binding intensity (ln)” value turned out to be 10.4. With “TGTATAAATATATGCACACATATATATATTTATATA [CACACA_site3473]”, the “gcPBM binding intensity (ln)” value is 10. “TCAATAAATGAATATGCATGCACGCTCTTTAGAGAT [TGCATGCA_site553]”: the “gcPBM binding intensity (ln)” value stood at 9.32.

On to “GAGAAAAAAAAAAAAAAACACACGGTACATTCAAAG [CACACA_site1767]”, for which the “gcPBM binding intensity (ln)” value worked out at 6.11. As for “TAATTCGCATTTTATACACACATTCGAACCTTTTTT [CACACA_site7549]”, the “gcPBM binding intensity (ln)” value amounted to 7.08. Take “AAATTAATACATTATTGTACTTTTCATGTGCAGAAA [XGTACX_site8284]”: the “gcPBM binding intensity (ln)” value worked out at 8.11. To “CGGATGAATATATATGCACACATCTTTTGTAAAAAT [CACACA_site3190]” belongs 9.53; to “CATATTACATTAAATTGTACATATATATATATATAT [XGTACX_site3295]”, 9.47; to “TATTTATATGTATATACATGCACATATATATGAAAC [TGCATGCA_site1005]”, 8.8. Consider “ATATATATATATATATGTACATATTTTTATTTATAC [XGTACX_site2858]”, for which the “gcPBM binding intensity (ln)” value amounted to 9.32. Regarding “TATGTAATGTTTACAACACACAAATTATAAATACAA [CACACA_site1771]”, the “gcPBM binding intensity (ln)” value was 6.31. Take “ACCTATATACTAAATGCACACTTATATATTTATATA [CACACA_site5371]”: the “gcPBM binding intensity (ln)” value worked out at 10.2. As for “CTATTTTATATGTGCACACATATACTCAGACAAATA [CACACA_site4761]”, the “gcPBM binding intensity (ln)” value amounted to 10.6. In the case of “AAAAAAAAAAAAAAATGTACATATATATAAATATAT [XGTACX_site6768]”, the “gcPBM binding intensity (ln)” value worked out at 6.44. As to “ACTAATAATTTGTCGGTGCATAAAATTATTTTTATT [GTGCAC_site9840]”, the “gcPBM binding intensity (ln)” value is 10.2.

For “CTACATAATAAAAAAAGTACATTCTAATAAATTGAC [XGTACX_site4504]”, the “gcPBM binding intensity (ln)” value was 6.05. With “ATATAAATTCAAATTACACACATTTATTTTTTTTAC [CACACA_site53]”, the “gcPBM binding intensity (ln)” value was found to be 6.66.

For “AATTTTATACGATAAACATGCAAATAAATAAATAAA [TGCATGCA_site227]”, the “gcPBM binding intensity (ln)” value was found to be 7. As for “TTTATTATATAAACATGTACACAATTTGGTATATTC [XGTACX_site3112]”, the “gcPBM binding intensity (ln)” value worked out at 6.73. Turning to “TATAATAATATTTATTGTACAATTAGTTTAATTCAT [XGTACX_site272]”, the “gcPBM binding intensity (ln)” value is 6.46. Turning to “ACAGCCAATACGGAAACACACAAGTTATTTTATCAT [CACACA_site5507]”, the “gcPBM binding intensity (ln)” value is 6.48. To “AAAGAAAAAAAAAACACACACACACCCATTCAATAT [CACACA_site38]” belongs 6.85. “TATATGCCTATAAGAAGTACTGTGTAATGTAATATA [XGTACX_site8089]”: the “gcPBM binding intensity (ln)” value is 6.67.

Consider “AAGAAAAATATATTTATATATATATATATTAAATAT [TGCATGCA_negctrl_site500]”, for which the “gcPBM binding intensity (ln)” value was determined as 6.33. Next, “TAAACATAAATATGCACACATATACATATATTCATA [CACACA_site2667]”: 9.75; “ATTCATAAAAGTTGTACATGCAATTTTTTTTTTTTT [TGCATGCA_site270]”: 6.63; “ATTTTGTTATGAAACACACACATATATATATATATA [CACACA_site3650]”: 9.42. With “AATATCTGTATATCCACACACATATATATATATATA [CACACA_site4987]”, the “gcPBM binding intensity (ln)” value came to 9.51. In the case of “TAATCGGTAATATTAACACACACATTTATATATATT [CACACA_site8274]”, the “gcPBM binding intensity (ln)” value was 6.74.

On to “TAATTTCTTATGTAGTGTACAAATAATATATGATAT [XGTACX_site597]”, for which the “gcPBM binding intensity (ln)” value amounted to 6.39. Next, “AAAAGGAGAAATATTGCACACGTGCAAAATGGTATG [CACACA_site4300]”: 11; “AATATCACCACATTGTTACTATAATATATAAAAAAG [XGTACX_negctrl_site384]”: 6.37. Next, “GTATTAATAAAAATACGTACTTATTATTTATAATAA [XGTACX_site7672]”: 5.93; “ATTATTCATATAACACGTACAAAACGAAAAACAAAT [XGTACX_site3873]”: 7.23. In the case of “ATGATAAAATTATGTAGTACATATTTGAATGTAAAT [XGTACX_site688]”, the “gcPBM binding intensity (ln)” value was 6.35. Consider “ATATATGTAACATATTGTACATATATGTATGTATGT [XGTACX_site3281]”, for which the “gcPBM binding intensity (ln)” value came to 6.97.
